Out of some 52,000 compounds screened, about 4,300 (8.3%) were called active. Cut-off read from the data, not from the text of the source: active = survival mostly below about 52% (no sharp cut-off); inactive = mostly above about 56%. The list shows a part of the results.
system: DeltatarO mutant; test: growth inhibition of S. aureus wild type versus tarO mutant, primary screen, teichoic acid synthesis inhibitors, RN4220, OD600 (AID 463173); settings: OD600, 18 h, active compounds read low, screened at 18.75 µg/mL (by protocol)

**Q.** For `Oc1ccc(NCc2ccccc2OCc2ccccc2Cl)cc1`, which survival is on record?
**A.** The survival was active: 52%.

**Q.** How did the survival turn out when `CN(C)c1ccc(NC(=O)CSC2=Nc3ccccc3C3=NC(CC(=O)NCc4ccc5c(c4)OCO5)C(=O)N23)cc1` (configuration not stated) was run?
**A.** The survival was inactive: 123%.

**Q.** For `Cc1ccc(S(=O)(=O)Nc2c(C)nc3nc(C)[nH]n3c2=O)c(C)c1`, which survival is on record?
**A.** Its survival is inactive: 117%.

**Q.** Which survival does the source give for `COc1ccc(C(=O)NCc2nnc(SCC(=O)Nc3ccc(F)cc3)n2-c2ccccc2)cc1` here?
**A.** The survival was inactive: 121%.

**Q.** Which survival does the source give for `COC(=O)c1ccc(NC(=O)CSc2nc3c(c(=O)n(C)c(=O)n3C)n2Cc2ccccc2)cc1` here?
**A.** Its survival is inactive: 64%.

**Q.** With `Cc1ccc(NC(=O)Cn2cnc3c(oc4ccccc43)c2=O)cc1` as the compound, how does the survival read?
**A.** Its survival is inactive: 81%.

**Q.** With `CC(C)C1N(c2ccccc2)CCN1c1ccccc1` as the compound, how does the survival read?
**A.** The survival was inactive: 74%.

**Q.** For `Cc1ccc(C(=O)c2oc3ccccc3c2NC(=O)COc2ccc(C(C)(C)C)cc2)cc1`, which survival is on record?
**A.** Its survival is inactive: 96%.

**Q.** With `Cc1ccc(COc2cccc3cc(-c4noc(-c5ccc(C)cc5)n4)c(=O)oc23)cc1` as the compound, how does the survival read?
**A.** Its survival is inactive: 82%.

**Q.** How did the survival turn out when `O=C(NCc1ccccc1Cl)C(=O)NCC(c1cccs1)S(=O)(=O)c1ccccc1` (configuration not stated) was run?
**A.** The survival was inactive: 116%.

**Q.** How did the survival turn out when `N#C/C(=C\c1ccc(-c2ccc(Cl)c(C(=O)O)c2)o1)c1nc2ccccc2[nH]1` was run?
**A.** The survival was active: 55%.

**Q.** How did the survival turn out when `Cc1ccc(-n2c(SCc3ccccc3C)nc3[nH]ncc3c2=O)cc1C` was run?
**A.** Its survival is inactive: 77%.

**Q.** With `Cc1cccn2c(=O)c3cc(C(=O)NC(C)c4ccccc4)c(=N)n(CCOCCO)c3nc12` (configuration not stated) as the compound, how does the survival read?
**A.** The survival was inactive: 76%.

**Q.** For `CCOc1ccccc1N1CC(c2nc3ccccc3n2CCOc2ccccc2OC)CC1=O` (configuration not stated), which survival is on record?
**A.** Its survival is inactive: 95%.

**Q.** For `COc1ccc(-c2nnc(SCC(=O)c3ccc([N+](=O)[O-])cc3)o2)cc1OC`, which survival is on record?
**A.** The survival was inactive: 90%.

**Q.** With `CC(C)c1ccc(NC(=O)CN2C=NS(=O)(=O)c3ccccc32)cc1` as the compound, how does the survival read?
**A.** Its survival is inactive: 91%.

**Q.** How did the survival turn out when `O=C(CCc1ccccc1)Nc1nnc(CCN2CCCCC2)s1` was run?
**A.** The survival was inactive: 97%.

**Q.** For `CCC(=O)OC1=CN(Cc2ccccc2)S(=O)(=O)c2ccccc21`, which survival is on record?
**A.** The survival was inactive: 75%.

**Q.** Which survival does the source give for `CCC(=O)C1=C(c2ccc(F)cc2)N(C(=O)CC)n2c(nnc2C2CCCCC2)S1` here?
**A.** Its survival is inactive: 94%.

**Q.** Which survival does the source give for `CCN(CC)S(=O)(=O)c1ccc2c(c1)N(CC(=O)Nc1c(C)cc(C)cc1C)C(=O)CS2` here?
**A.** Its survival is inactive: 75%.

**Q.** With `COC(=O)c1cc2oc(C)cc2n1Cc1ccc(C)cc1` as the compound, how does the survival read?
**A.** The survival was inactive: 69%.

**Q.** With `O=C(O)CNC(=O)c1nc2ncccn2n1` as the compound, how does the survival read?
**A.** The survival was inactive: 75%.

**Q.** `CC(C)c1ccc(-c2noc(SCC(=O)N(C)c3ccc(F)cc3)n2)cc1` was tested. Which survival did it give?
**A.** Its survival is inactive: 122%.

**Q.** For `CCOC(=O)c1cc(OC(=O)c2cccc(F)c2)n(-c2ccccc2)n1`, which survival is on record?
**A.** Its survival is inactive: 61%.

**Q.** Which survival does the source give for `CC(=O)N1CCCc2ccc(NC(=O)c3ccc(C(F)(F)F)cc3)cc21` here?
**A.** Its survival is inactive: 107%.

**Q.** For `CCOc1ccc(N(C(=O)c2ccc(OC)cc2)S(=O)(=O)c2ccc3c(c2)n(C)c(=O)n3C)cc1`, which survival is on record?
**A.** The survival was active: 37%.

**Q.** For `O=C(NCc1cccnc1)C1CCN(Cc2cc3ccccc3n2Cc2ccccc2)CC1`, which survival is on record?
**A.** Its survival is inactive: 135%.

**Q.** Which survival does the source give for `O=C(NN=C1CCCCC1)c1cccc(N2CCCC2=O)c1` here?
**A.** The survival was inactive: 104%.

**Q.** How did the survival turn out when `O=C1CC(c2ccc(F)cc2)c2c(n3c(nc4ccccc43)[nH]c2=O)N1` (configuration not stated) was run?
**A.** The survival was inactive: 62%.

**Q.** For `CCCOc1ccc(C(=O)Nc2sc3c(c2C(=O)OCC)CCCCC3)cc1`, which survival is on record?
**A.** The survival was active: 24%.

**Q.** For `CC(C)N(C(C)C)S(=O)(=O)c1ccccc1`, which survival is on record?
**A.** Its survival is inactive: 100%.

**Q.** Which survival does the source give for `CCc1ccc(CNC(=O)C2CCN(C(=O)c3ccc(-n4ccc5ccccc54)s3)CC2)cc1` here?
**A.** Its survival is inactive: 89%.

**Q.** `Cc1ccccc1CS(=O)(=O)c1ncc(Cl)c(C(=O)Nc2nnc(C(C)C)s2)n1` was tested. Which survival did it give?
**A.** The survival was active: 30%.

**Q.** With `Cc1oc(-c2cccc(Br)c2)nc1CSc1nc2ncccc2[nH]1` as the compound, how does the survival read?
**A.** The survival was inactive: 78%.

**Q.** Which survival does the source give for `CCOc1ccc(CCNC(=O)Cn2nc(CC)n3c(cc4c(OC)cccc43)c2=O)cc1OCC` here?
**A.** The survival was inactive: 129%.

**Q.** For `Cc1cccc(N2CCN(C(=O)CN3C(=O)COc4ccc(S(=O)(=O)N5CCCC5)cc43)CC2)c1C`, which survival is on record?
**A.** The survival was inactive: 75%.

**Q.** How did the survival turn out when `CCOC(=O)CCn1ccc(=O)[nH]c1=O` was run?
**A.** Its survival is inactive: 98%.

**Q.** For `N#C/C(=C\c1c(Oc2ccc(F)cc2)nc2ccccn2c1=O)c1nc2ccccc2s1`, which survival is on record?
**A.** The survival was inactive: 61%.

**Q.** With `COc1cc2cc(C)c(SCC(=O)N3CCN(C(=O)c4ccco4)CC3)nc2cc1OC` as the compound, how does the survival read?
**A.** The survival was inactive: 73%.

**Q.** How did the survival turn out when `Cc1ccc(NC(=O)C2CCCN(S(=O)(=O)c3c(C)nn(C)c3C)C2)c(C)c1` (configuration not stated) was run?
**A.** Its survival is inactive: 80%.

**Q.** `CCOC(=O)N1CCN(Cc2nc3cc(NC(=O)c4ccc([N+](=O)[O-])cc4)ccc3n2C(C)C)CC1` was tested. Which survival did it give?
**A.** Its survival is inactive: 75%.

**Q.** Which survival does the source give for `CCN1C(=O)c2ccccc2S(=O)c2ccc(C(=O)NCc3ccccc3OC)cc21` (configuration not stated) here?
**A.** Its survival is inactive: 68%.

**Q.** `Cc1cccc(OCCSc2nc3ccccc3n2CC(=O)N2CCOCC2)c1C` was tested. Which survival did it give?
**A.** The survival was inactive: 50%.

**Q.** How did the survival turn out when `O=S(=O)(Nc1cccc(-c2ccc(N3CCCC3)nn2)c1)c1cc(F)ccc1F` was run?
**A.** The survival was inactive: 88%.

**Q.** Which survival does the source give for `Cc1cc(Nc2cccc(C(F)(F)F)c2)nc2ccc(NC(=O)c3cccnc3)cc12` here?
**A.** The survival was inactive: 124%.

**Q.** How did the survival turn out when `CCOC(=O)c1c(C)oc2nc(C)nc(N3CCN(c4cccc(C)c4C)CC3)c12` was run?
**A.** Its survival is inactive: 83%.

**Q.** How did the survival turn out when `CCCCCOc1ccc(NC(=O)Cn2c(-c3cncs3)nc3ccccc32)cc1` was run?
**A.** The survival was inactive: 86%.

**Q.** With `CC(=O)NC(NC(C)=O)c1ccccc1` as the compound, how does the survival read?
**A.** The survival was inactive: 83%.

**Q.** How did the survival turn out when `COc1cccc(CNC(=O)Cn2c(SCC(=O)Nc3ccc(C)c(C)c3)nc3ccccc32)c1` was run?
**A.** The survival was inactive: 87%.

**Q.** `CSc1ccc(NC(=O)Cn2nnnc2-c2ccccc2F)cc1` was tested. Which survival did it give?
**A.** The survival was inactive: 81%.

**Q.** How did the survival turn out when `COc1ccc(S(=O)(=O)NCC(c2ccco2)N2CCN(c3ccccc3F)CC2)cc1C` (configuration not stated) was run?
**A.** Its survival is inactive: 82%.

**Q.** `COc1cc(/C=C/c2nc3cc(Cl)ccc3c(=O)n2-c2ccc(C)cc2C)cc(OC)c1OC` was tested. Which survival did it give?
**A.** Its survival is inactive: 86%.

**Q.** For `CCOC(=O)c1nnn(CC(=O)NC(=O)Nc2ccc(F)cc2)c1C(=O)OCC`, which survival is on record?
**A.** The survival was inactive: 149%.

**Q.** How did the survival turn out when `Cc1ccc(-n2nc3cc(C)c(NC(=O)Cc4ccc(Cl)cc4)cc3n2)cc1` was run?
**A.** Its survival is inactive: 64%.

**Q.** For `COc1ccc(CNC(=O)c2ccc3c(c2)N(Cc2ccccc2)CCS3)cc1`, which survival is on record?
**A.** Its survival is inactive: 69%.

**Q.** With `Cc1ccccc1Nc1nnc(-c2ccc(C)c(S(=O)(=O)N3CCCCC3)c2)c2ccccc12` as the compound, how does the survival read?
**A.** The survival was inactive: 108%.

**Q.** How did the survival turn out when `O=C(COc1ccccc1)NS(=O)(=O)c1ccc(N=NN2CCOCC2)cc1` was run?
**A.** Its survival is inactive: 92%.

Reference: PubChem BioAssay AID463173 (ICCB-Longwood Screening Facility, Harvard Medical School, 2010)
